Measurements reported in PubChem BioAssay AID493208 (National Center for Advancing Translational Sciences (NCATS), 2011).
Screen size: about 44,000 compounds; about 340 (0.77%) were called active. Inconclusive results (about 5%) are left out. Calls come from the whole dose curve; as a rule, active = well fitted inhibition curve with a large enough effect; inconclusive = small, poorly fitted or top-dose-only effect; inactive = flat fitted curve, though single readings scatter. Some of the results follow.

Experiment: Acumen qHTS Assay for Inhibitors of the mTORC1 Signaling Pathway in MEF (Tsc2-/-, p53-/-) Cells: Sytravon;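 note: plate controls were DMSO for no effect and rapamycin for full effect; nearly all actives have a fitted effect of over 50% in size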
Conditions: phospho-rpS6 immunofluorescence/PI, 24 h; series mostly up to 38.3 µM; activity change, negative = inhibition: at the top concentration
In short: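 Tsc2-/-, p53-/- MEFs (empty-vector stable line) in DMEM + 10% FBS were treated with compounds 24 h at 37 degree Celsius, fixed, and immunostained for phospho-rpS6 (Alexa-488) with propidium iodide counterstain. Laser-scanning cytometry gave % positive cells, normalized against 7.5 nM rapamycin and DMSO.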

Activity change, negative = inhibition, inactive:
Clc1ccc(CCNC(c2ccc(Cl)cc2)c2nnc(-c3ccccc3)o2)cc1 (stereo not given) -0.495%, CCc1ccc(NC(=O)Cn2c(=O)n(CCCC(=O)NCc3ccc4c(c3)OCO4)c(=O)c3ccccc32)cc1 -23.1%, CCS(=O)(=O)NCC(c1ccco1)N1CCN(c2ccc(F)cc2)CC1 (stereo not given) 0.931%, CC(=O)C1=C(c2cccc([N+](=O)[O-])c2)N(C(C)=O)n2c(nnc2-c2ccc(C)cc2)S1 0.322%, CCOC(=O)c1c(S(=O)(=O)N2CCCC(C(=O)N3CCN(c4cc(C)ccc4C)CC3)C2)c(C)n(C)c1C (stereo not given) 7.19%, Cc1nn2c(C)c(C(=O)N3CCN(c4ccc(Cl)cc4)CC3)cnc2c1-c1ccc(F)cc1 -2.35%, COc1cc2c(cc1OC)n(CC(=O)c1ccc(C)cc1C)c(=O)n1nc(CCn3nc(C)cc3C)nc21 -2.48%, O=S(=O)(c1ccc(-c2cnc(C3CC3)o2)cc1)N1CCN(c2ccccc2F)CC1 13.3%, O=C(NCCCN1CCN(c2cccc(Cl)c2)CC1)c1ccc2nc(Cc3ccccc3)oc2c1 -0.684%, Cc1cccc(Nc2sc(C(=O)c3ccc(Cl)cc3)c(N)c2C(N)=O)c1 1.88%, COc1ccc(NC(=O)c2cc(-c3ccccc3F)no2)cc1 10.4%, COc1cccc(CNC(=O)Cn2nc(C)c3sc4ccccc4c3c2=O)c1OC -0.334%, C=Cc1ccc(Cn2c(C)c(CNCCc3ccc(OCC)cc3)c(C(=O)O)c2C)cc1 -0.747%, Cc1cccc(C)c1OCC(=O)N(Cc1ccco1)Cc1ccco1 -2.7%, Cc1ccnc(NS(=O)(=O)c2ccc(NC(=O)c3ccc(C)c(C)c3)cc2)n1 8.08%, Cc1ccc2c(=O)cc(CSc3ncn[nH]3)[nH]c2c1C 6.56%, CCOC(=O)c1c(C)[nH]c(C)c1S(=O)(=O)N1CCC(C(=O)N2CCN(c3ccc(F)cc3)CC2)CC1 1.32%, CCn1cc(C(=O)N2CCN(c3cccc(Cl)c3)CC2)c(=O)c2cc(S(=O)(=O)N3CCC(C)CC3)ccc21 0.6%, Cc1ccccc1CN1C(=O)c2ccccc2Sc2ccc(C(=O)NCCc3ccccc3)cc21 -4.31%, Cc1ccc2nc(NC(=O)c3ccc(S(=O)(=O)N4CCC(C)CC4)cc3)sc2c1 -9.63%, Cc1ccc(N2CC(NC(=O)c3cccs3)CC2=O)cc1 (stereo not given) 0.481%, CCc1cccc(CC)c1NC(=O)c1c(C)oc2ccc(O)c(CN3CCCC3)c12 -13.4%, O=C(CCCN1C(=O)c2cccnc2Oc2ccc(Cl)cc21)NCc1ccc(F)cc1 -6.17%, CN1CCN(CCNC(=O)c2cnn(-c3ccc(F)cc3)c2C2CCN(C(=O)OC(C)(C)C)CC2)CC1 0.561%, Cc1ccc(N2C(=O)CSC23C(=O)N(CC(=O)NCc2ccccc2)c2ccccc23)cc1 (stereo not given) 0.16%, Cc1ccc2c(c1)C(=O)OC(C(=O)Nc1ccccc1C(=O)O)C2 (stereo not given) -1.97%, CCOc1ccc(-n2cc(-c3ccccc3)c3c(NC4CCCC4)ncnc32)cc1 0%, O=C(CN1C(=O)C2(SCC(=O)N2c2ccc(F)cc2)c2ccccc21)NC1CCCCC1 (stereo not given) 3.52%, Cc1ccccc1Nc1nc(N)c(C(=O)c2ccccc2Cl)s1 -5.05%, Cc1cc2oc(C(=O)N(Cc3ccc(N(C)C)cc3)Cc3ccco3)c(C)c2cc1Cl 0.752%, CCCCc1ccc(NC(=O)CSc2nc(=O)[nH]c3c2CCCC3)cc1 2.61%, O=C1C(=O)N(C2CCN(C(=O)c3cccc(Cl)c3)CC2)CCN1Cc1ccc(F)cc1 5.67%, CCOc1ccc(S(=O)(=O)N2CCN(Cc3nc4ccc(C)cc4o3)CC2)cc1 0.632%, O=C(CSc1nc2c([nH]c3ccccc32)c(=O)n1-c1ccccc1F)Nc1cccc(C(F)(F)F)c1 -11.6%, CCOc1ccc(NC(=O)c2cnc3sc(N4CCOCC4)nn3c2=O)cc1 -5.7%, COc1cccc(N2CC(NC(=O)COc3ccccc3F)CC2=O)c1 (stereo not given) -10.8%, Cc1ccc(C)c(NC(=O)CSc2ccc3nc(-c4ccccc4)cn3n2)c1 -6.27%, CCOc1ccc(CCNC(=O)Cn2c(-c3cccs3)cc3ccccc32)cc1OCC -1.21%, O=C(Nc1cccc(C(=O)OCc2cc(=O)n3nc(C4CC4)sc3n2)c1)c1cccc(Cl)c1 0%, COc1ccc(Nc2oc(/C=C/c3ccccc3OC)nc2C#N)cc1 -13.6%, COC(=O)CCN(c1ccccc1)C(CNS(=O)(=O)c1ccccc1)c1ccccc1 (stereo not given) -22.1%, Cc1nc2cc(-c3cccc(F)c3)nn2c(C)c1CCC(=O)NC(C)c1ccccc1 (stereo not given) -5.5%, COc1cc(C(=O)NCCc2sc(-c3cccc(F)c3)nc2C)cc(OC)c1OC -9.73%, O=C(Nc1ccccc1Br)c1cc(CN2CCCC2)on1 -7.28%, COC(=O)c1c(NC(=O)C2c3ccccc3Oc3ccccc32)sc2c1CCC(C(C)(C)C)C2 (stereo not given) -9.29%, COc1cc2c(cc1NC(=O)c1ccccc1C)n(C)c(=O)n2C -2.07%, CCc1ccc(CNC(=O)c2ccc(-c3nc(CSc4ccc(C)cc4)c(C)o3)cc2)cc1 -9.27%, COc1cccc(-c2cc(C(=O)NCc3ccc(F)cc3)no2)c1 3.52%, COc1cccc(CNC(=O)CCn2cnc3ccccc3c2=O)c1 -1.49%, O=C(CCN1C(=O)c2ccccc2Sc2ncccc21)Nc1ccc(F)cc1 -7.35%, CC(CCc1ccccc1)NC(=O)Cn1ncc2c3ccccc3n(Cc3ccccc3)c2c1=O (stereo not given) -5.59%, CC(C)CNc1ncnc2onc(-c3ccc(Cl)cc3)c12 -22.8%, CCOC(=O)c1ccc(NC(=O)c2oc3c(c2C)-c2nn(Cc4ccccc4Cl)cc2CC3)cc1 4.57%, COc1ccc(-c2nnc(SCC(=O)Nc3c(C)cccc3C)nc2-c2ccc(OC)cc2)cc1 3.18%, COc1ccc(S(=O)(=O)N2CCC(n3c(C)nc4cccnc43)CC2)cc1Cl -4.57%, Cc1ccc(C)c(N2CCN(S(=O)(=O)c3cc(C(=O)Nc4ccccc4C(F)(F)F)ccc3F)CC2)c1 15%, CC(Oc1ccccc1)C(=O)Nc1c(C(=O)Nc2cccc(F)c2)oc2ccccc12 (stereo not given) -5.81%, CCOC(=O)c1c(NC(=O)COc2ccc(Cl)cc2Cl)sc2c1CCCCC2 -4.94%, CCc1ccc(S(=O)(=O)Nc2cc3c(cc2C)n(C)c(=O)c(=O)n3C)cc1 -9.1%, CN(C)c1ccc(CNC(=O)Cn2c(-c3cccs3)cc3cc(Cl)ccc32)cc1 0.0355%
